Test results: PMC9911399, “Two distinct binding modes provide the RNA-binding protein RbFox with extraordinary sequence specificity”
Numbering of substitutions follows the chain as printed; changes in the protein carry UniProt numbers. Some of the results follow.

T1: RBFOX1 RRM (Homo sapiens, UniProt Q9NWB1 109-208)
T1 sequence: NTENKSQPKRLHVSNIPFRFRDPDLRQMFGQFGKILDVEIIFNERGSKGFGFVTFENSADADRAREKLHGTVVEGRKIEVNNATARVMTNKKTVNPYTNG

B1: GGCGCGU (DNA:RNA)
RNA: GGGAGACCGGAAUUCAGAUUGUCCGGCGCGUUUAAAUCCCGUCGUAGCCACCA
DNA 1: CAATCTGAATTCCGGTCTCCC
DNA 2: TGGTGGCTACGACGGGATT
B2: GGUCUGU (DNA:RNA)
RNA: B1 RNA with C27U, G28C, C29U
DNA 1: CAATCTGAATTCCGGTCTCCC
DNA 2: TGGTGGCTACGACGGGATT
B3: CUUAGUU (DNA:RNA)
RNA: B1 RNA with G25C, G26U, C27U, G28A, C29G, G30U
DNA 1: CAATCTGAATTCCGGTCTCCC
DNA 2: TGGTGGCTACGACGGGATT
B4: GUAGAAG (DNA:RNA)
RNA: B1 RNA with G26U, C27A, C29A, G30A, U31G
DNA 1: CAATCTGAATTCCGGTCTCCC
DNA 2: TGGTGGCTACGACGGGATT
B5: AGCCGUC (DNA:RNA)
RNA: B1 RNA with G25A, G28C, C29G, G30U, U31C
DNA 1: CAATCTGAATTCCGGTCTCCC
DNA 2: TGGTGGCTACGACGGGATT
B6: ACAAAUA (DNA:RNA)
RNA: GGGAGACCGGAAUUCAGAUUGUCCACAAAUAUUAAAUCCCGUCGUAGCCACCA
DNA 1: CAATCTGAATTCCGGTCTCCC
DNA 2: TGGTGGCTACGACGGGATT
B7: CUGUUAC (DNA:RNA)
RNA: GGGAGACCGGAAUUCAGAUUGUCCCUGUUACUUAAAUCCCGUCGUAGCCACCA
DNA 1: CAATCTGAATTCCGGTCTCCC
DNA 2: TGGTGGCTACGACGGGATT
B8: AGAUGUU (DNA:RNA)
RNA: B6 RNA with C26G, A28U, A29G, A31U
DNA 1: CAATCTGAATTCCGGTCTCCC
DNA 2: TGGTGGCTACGACGGGATT
B9: GCCACUG (DNA:RNA)
RNA: B6 RNA with A25G, A27C, A29C, A31G
DNA 1: CAATCTGAATTCCGGTCTCCC
DNA 2: TGGTGGCTACGACGGGATT
B10: CGGGAUU (DNA:RNA)
RNA: B1 RNA with G25C, C27G, C29A, G30U
DNA 1: CAATCTGAATTCCGGTCTCCC
DNA 2: TGGTGGCTACGACGGGATT
B11: UUGAGGU (DNA:RNA)
RNA: B7 RNA with C25U, U28A, U29G, A30G, C31U
DNA 1: CAATCTGAATTCCGGTCTCCC
DNA 2: TGGTGGCTACGACGGGATT
B12: UUAUGGC (DNA:RNA)
RNA: B7 RNA with C25U, G27A, U29G, A30G
DNA 1: CAATCTGAATTCCGGTCTCCC
DNA 2: TGGTGGCTACGACGGGATT
B13: GAGUAUG (DNA:RNA)
RNA: B6 RNA with A25G, C26A, A27G, A28U, A31G
DNA 1: CAATCTGAATTCCGGTCTCCC
DNA 2: TGGTGGCTACGACGGGATT
B14: AUGGAGU (DNA:RNA)
RNA: B1 RNA with G25A, G26U, C27G, C29A
DNA 1: CAATCTGAATTCCGGTCTCCC
DNA 2: TGGTGGCTACGACGGGATT
B15: UAUCAUC (DNA:RNA)
RNA: B6 RNA with A25U, C26A, A27U, A28C, A31C
DNA 1: CAATCTGAATTCCGGTCTCCC
DNA 2: TGGTGGCTACGACGGGATT
B16: UCGAUAU (DNA:RNA)
RNA: B7 RNA with C25U, U26C, U28A, C31U
DNA 1: CAATCTGAATTCCGGTCTCCC
DNA 2: TGGTGGCTACGACGGGATT
B17: GGGAGAG (DNA:RNA)
RNA: B7 RNA with C25G, U26G, U28A, U29G, C31G
DNA 1: CAATCTGAATTCCGGTCTCCC
DNA 2: TGGTGGCTACGACGGGATT
B18: GAGCAUG (DNA:RNA)
RNA: B6 RNA with A25G, C26A, A27G, A28C, A31G
DNA 1: CAATCTGAATTCCGGTCTCCC
DNA 2: TGGTGGCTACGACGGGATT
B19: GUUCCCA (DNA:RNA)
RNA: B1 RNA with G26U, C27U, G28C, G30C, U31A
DNA 1: CAATCTGAATTCCGGTCTCCC
DNA 2: TGGTGGCTACGACGGGATT
B20: ACUAUCG (DNA:RNA)
RNA: B6 RNA with A27U, A29U, U30C, A31G
DNA 1: CAATCTGAATTCCGGTCTCCC
DNA 2: TGGTGGCTACGACGGGATT
B21: CGCGACU (DNA:RNA)
RNA: B1 RNA with G25C, C29A, G30C
DNA 1: CAATCTGAATTCCGGTCTCCC
DNA 2: TGGTGGCTACGACGGGATT
B22: CCGCUCA (DNA:RNA)
RNA: B7 RNA with U26C, U28C, A30C, C31A
DNA 1: CAATCTGAATTCCGGTCTCCC
DNA 2: TGGTGGCTACGACGGGATT
B23: CAUGGAU (DNA:RNA)
RNA: B7 RNA with U26A, G27U, U28G, U29G, C31U
DNA 1: CAATCTGAATTCCGGTCTCCC
DNA 2: TGGTGGCTACGACGGGATT
B24: GCAACGA (DNA:RNA)
RNA: B6 RNA with A25G, A29C, U30G
DNA 1: CAATCTGAATTCCGGTCTCCC
DNA 2: TGGTGGCTACGACGGGATT
B25: UUCGGCA (DNA:RNA)
RNA: B1 RNA with G25U, G26U, C29G, G30C, U31A
DNA 1: CAATCTGAATTCCGGTCTCCC
DNA 2: TGGTGGCTACGACGGGATT
B26: UCCAAAC (DNA:RNA)
RNA: B6 RNA with A25U, A27C, U30A, A31C
DNA 1: CAATCTGAATTCCGGTCTCCC
DNA 2: TGGTGGCTACGACGGGATT
B27: CAAUUCU (DNA:RNA)
RNA: B7 RNA with U26A, G27A, A30C, C31U
DNA 1: CAATCTGAATTCCGGTCTCCC
DNA 2: TGGTGGCTACGACGGGATT
B28: GACCUAC (DNA:RNA)
RNA: B7 RNA with C25G, U26A, G27C, U28C
DNA 1: CAATCTGAATTCCGGTCTCCC
DNA 2: TGGTGGCTACGACGGGATT
B29: UUACGUA (DNA:RNA)
RNA: B6 RNA with A25U, C26U, A28C, A29G
DNA 1: CAATCTGAATTCCGGTCTCCC
DNA 2: TGGTGGCTACGACGGGATT
B30: UGUGCUU (DNA:RNA)
RNA: B1 RNA with G25U, C27U, G30U
DNA 1: CAATCTGAATTCCGGTCTCCC
DNA 2: TGGTGGCTACGACGGGATT
B31: UCGGUCU (DNA:RNA)
RNA: B7 RNA with C25U, U26C, U28G, A30C, C31U
DNA 1: CAATCTGAATTCCGGTCTCCC
DNA 2: TGGTGGCTACGACGGGATT

molecular target: T1, RBFOX1 RRM; assay: EMSA; HiTS-Eq, 1 nM pool, 10 min; buffer printed only for the single-RNA assays: 10 mM Tris pH 7.5, 150 mM NaCl, 3.4 mM EDTA, 0.001% NP-40, 30 C; conditions: tags: His6 N-terminal (pET28a); label: 5' 32P
Procedure, shortened: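 Purified RbFox RRM, wild type or mutant, was incubated for 10 min in 50 µL with 1 nM of a 5′-radiolabelled RNA pool carrying 7 randomized nucleotides, whose flanks were annealed to DNA oligonucleotides, over a series of increasing protein concentrations. Unbound RNA was resolved on 8% native PAGE, cut out, reverse-transcribed, barcoded by PCR and sequenced on an Illumina HiSeq 2500. Relative association constants were derived from changes in read counts for each RNA species versus the control reaction and normalised to the cognate motif.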

Binder | binding signal
B1 | 0.0157 KA relative to UGCAUGU
B2 | 0.0145 KA relative to UGCAUGU
B3 | 0.0119 KA relative to UGCAUGU
B4 | 0.00991 KA relative to UGCAUGU
B5 | 0.00905 KA relative to UGCAUGU
B6 | 0.000866 KA relative to UGCAUGU
B7 | 0.0136 KA relative to UGCAUGU
B8 | 0.00932 KA relative to UGCAUGU
B9 | 0.0162 KA relative to UGCAUGU
B10 | 0.03 KA relative to UGCAUGU
B11 | 0.0187 KA relative to UGCAUGU
B12 | 0.00848 KA relative to UGCAUGU
B13 | 0.0168 KA relative to UGCAUGU
B14 | 0.0115 KA relative to UGCAUGU
B15 | 0.00384 KA relative to UGCAUGU
B16 | 0.00435 KA relative to UGCAUGU

Binder | binding signal
B17 | 0.0224 KA relative to UGCAUGU
B18 | 0.713 KA relative to UGCAUGU
B19 | 0.00648 KA relative to UGCAUGU
B20 | 0.00647 KA relative to UGCAUGU
B21 | 0.012 KA relative to UGCAUGU
B22 | 0.00712 KA relative to UGCAUGU
B23 | 0.00795 KA relative to UGCAUGU
B24 | 0.0118 KA relative to UGCAUGU
B25 | 0.0185 KA relative to UGCAUGU
B26 | 0.000218 KA relative to UGCAUGU
B27 | 0.00154 KA relative to UGCAUGU
B28 | 0.00371 KA relative to UGCAUGU
B29 | 0.00786 KA relative to UGCAUGU
B30 | 0.0181 KA relative to UGCAUGU
B31 | 0.0172 KA relative to UGCAUGU
